The structures appear in SMILES notation. This is one part of the list.

The assay deals with HSkMC (human skeletal muscle cells). The assay is described as follows: cytotoxicity call (relative viability < 0.9). The following applies: 10 µM.
For `C[C@@H]1CN([C@H](C)CO)C(=O)c2cc(NC(=O)Nc3ccc4c(c3)OCO4)ccc2O[C@@H](C)CCCCO[C@H]1CN(C)S(=O)(=O)c1cccs1`, the cytotoxicity call was “inactive”.

`C[C@H](CO)N1C[C@H](C)[C@H](CN(C)S(=O)(=O)c2ccccc2)Oc2c(NC(=O)C3CC3)cccc2C1=O`: the cytotoxicity call is “inactive”.

Turning to `O=C(CCCCCC(=O)N/N=C/[C@H](O)[C@@H](O)[C@H](O)[C@H](O)CO)NO`, the cytotoxicity call is “inactive”.

On to `COc1cc2c(cc1OC)CN(C(=O)[C@H]1[C@@H]3C(=O)O[C@@H](c4ccccc4)[C@@H](c4ccccc4)N3[C@@H](c3ccc(OCCO)cc3)[C@]13C(=O)Nc1ccc(C#CC4(O)CCCCCC4)cc13)CC2`, for which the cytotoxicity call is “inactive”.

As for `COc1ccc2c3c([nH]c2c1)[C@@H](CO)N(C[C@]13CCN(CC1)CC1CCCC1)C(=O)CN1CCOCC1`, the cytotoxicity call was “inactive”.

For the molecule `CCCCCCCCCC(=O)N[C@H]1[C@H](Oc2c3cc4cc2Oc2ccc(cc2Cl)[C@@H](O[C@@H]2O[C@H](CO)[C@@H](O)[C@H](O)[C@H]2NC(C)=O)[C@@H]2NC(=O)[C@H](NC(=O)[C@@H]4NC(=O)[C@H]4NC(=O)[C@@H](Cc5ccc(c(Cl)c5)O3)NC(=O)[C@@H](N)c3ccc(O)c(c3)Oc3cc(O)cc4c3)c3ccc(O)c(c3)-c3c(O[C@H]4O[C@H](CO)[C@@H](O)[C@H](O)[C@@H]4O)cc(O)cc3[C@H](C(=O)O)NC2=O)O[C@H](CO)[C@@H](O)[C@@H]1O`, the cytotoxicity call is “inactive”.

Take `C[C@@H]1CN([C@@H](C)CO)C(=O)c2cccc(NC(=O)CCCCCC(=O)Nc3ccccc3N)c2O[C@H]1CN(C)C(=O)Nc1ccc(F)cc1`: the cytotoxicity call was “inactive”.

With `C[C@H]1CCCCO[C@@H](CN(C)C(=O)NC2CCCCC2)[C@@H](C)CN([C@@H](C)CO)C(=O)c2cc(NS(=O)(=O)c3cccs3)ccc2O1`, the cytotoxicity call was “inactive”.

For the molecule `COc1ccc(NC(=O)Nc2ccc3c(c2)C(=O)N([C@@H](C)CO)C[C@@H](C)[C@@H](CN(C)C(=O)C2CCCCC2)OCCCC[C@@H](C)O3)cc1`, the cytotoxicity call is “inactive”.

As to `CS(=O)(=O)Nc1cccc(C2=NN(c3nc(-c4ccccc4)c4cc(Cl)ccc4n3)[C@H](c3ccco3)C2)c1`, the cytotoxicity call was “inactive”.

`Cc1ccc(S(=O)(=O)Nc2cccc3c2O[C@H](CN(C)C(=O)Nc2cccc4ccccc24)[C@@H](C)CN([C@H](C)CO)C3=O)cc1`: the cytotoxicity call was “inactive”.

Regarding `C[C@@H]1CCCCO[C@@H](CN(C)S(=O)(=O)c2ccccc2)[C@@H](C)CN([C@H](C)CO)C(=O)c2cc(NC(=O)Nc3cccc4ccccc34)ccc2O1`, the cytotoxicity call was “inactive”.

As to `COc1ccc(NC(=O)Nc2ccc3c(c2)CC(=O)N([C@H](C)CO)C[C@H](C)[C@@H](CN(C)S(=O)(=O)c2c(C)noc2C)O3)cc1`, the cytotoxicity call is “inactive”.

Regarding `O=C(C[C@@H]1CC[C@@H]2[C@H](COC[C@H](O)CN2C(=O)c2ccccn2)O1)NC1CCC1`, the cytotoxicity call is “inactive”.

With `Oc1cc(O)c2c(c1)OC(c1cc(O)c(O)c(O)c1)C(O)C2c1c(O)cc(O)c2c1OC(c1cc(O)c(O)c(O)c1)C(O)C2c1c(O)cc(O)c2c1OC(c1cc(O)c(O)c(O)c1)C(O)C2` (stereo not given), the cytotoxicity call is “inactive”.

Consider `C[C@H]1CN([C@@H](C)CO)C(=O)c2cc(NS(=O)(=O)c3ccc(Cl)cc3)ccc2O[C@H]1CN(C)Cc1ccc(-c2ccccc2)cc1`, for which the cytotoxicity call was “inactive”.

As for `C[C@@H]1CN([C@@H](C)CO)C(=O)c2cc(C#Cc3ccccc3F)cnc2O[C@@H]1CN(C)S(=O)(=O)c1ccccc1`, the cytotoxicity call was “inactive”.

Take `O=C(NO)c1ccc(C(=O)N/N=C/c2ccc(B(O)O)cc2)cc1`: the cytotoxicity call was “inactive”.

Turning to `C[C@@H]1CCCCO[C@H](CN(C)S(=O)(=O)c2cccs2)[C@H](C)CN([C@@H](C)CO)C(=O)c2cc(NC(=O)CCC(F)(F)F)ccc2O1`, the cytotoxicity call was “inactive”.

As for `CN1CCN(C(=O)C[C@H]2CC[C@H]3[C@@H](COC[C@@H](O)CN3C(=O)C3CCOCC3)O2)CC1`, the cytotoxicity call was “inactive”.

In the case of `O=C(CCO[C@@H]1O[C@H](CO)[C@@H](O)[C@H](O)[C@H]1O)c1ccc(O)cc1`, the cytotoxicity call is “inactive”.

As to `CC(=O)/N=c1\sc(S(N)(=O)=O)nn1C`, the cytotoxicity call was “inactive”.

Consider `C[C@H](CO)N1C[C@H](C)[C@H](CN(C)C(=O)c2ccccc2)Oc2cc(C#C[C@@H](C)O)ccc2S1(=O)=O`, for which the cytotoxicity call is “inactive”.

With `N[C@@H](Cc1c[nH]c2ccc(O)cc12)C(=O)O`, the cytotoxicity call was “inactive”.

Consider `C[C@@H]1CCCCO[C@H](CN(C)C(=O)Nc2cccc3ccccc23)[C@@H](C)CN([C@H](C)CO)C(=O)c2cc(N(C)C)ccc2O1`, for which the cytotoxicity call is “inactive”.

For the origin of these results see the antibiotic and cytotoxicity screens of Wong et al. (2023).
